Laboratory results: PMC7613676
Results are given in words; binding and its absence hold for the method and conditions named. In cells and extracts the contact can be indirect. Some results given as binding are weak or reduced against the parent protein; the word gives no strength. Where a sequence is shown, tags or fusion partners need not be part of it.

How the values were obtained:
Assay in all cases: co-IP; HA immunoprecipitation from 1 mg lysate of transfected Rlim-/y mESCs, overnight at 4 °C; beads washed with lysis buffer containing 500 mM NaCl; immunoblot for FLAG and HA
[1] = molecular target: T1, HA-mRNF12 Δ546-587 (ΔRING) (mouse) (UniProt Q9WTV7)
T1 sequence: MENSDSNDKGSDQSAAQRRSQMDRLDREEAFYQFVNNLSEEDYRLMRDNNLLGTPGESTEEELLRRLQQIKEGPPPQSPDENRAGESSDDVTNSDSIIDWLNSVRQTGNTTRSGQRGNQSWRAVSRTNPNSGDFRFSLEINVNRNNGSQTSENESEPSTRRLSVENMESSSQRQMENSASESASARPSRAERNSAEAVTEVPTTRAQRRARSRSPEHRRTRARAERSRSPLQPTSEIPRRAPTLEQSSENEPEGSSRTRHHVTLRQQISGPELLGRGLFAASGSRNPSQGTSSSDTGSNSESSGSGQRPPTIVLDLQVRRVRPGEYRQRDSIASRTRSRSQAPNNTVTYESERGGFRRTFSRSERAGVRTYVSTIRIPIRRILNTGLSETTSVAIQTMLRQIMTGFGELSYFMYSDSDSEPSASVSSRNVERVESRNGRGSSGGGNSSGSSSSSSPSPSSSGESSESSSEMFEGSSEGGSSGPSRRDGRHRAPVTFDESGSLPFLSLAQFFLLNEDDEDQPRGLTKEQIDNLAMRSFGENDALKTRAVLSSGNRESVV

[2] = molecular target: T2, HA-mRNF12 Δ502-513 (ΔNES) (mouse) (UniProt Q9WTV7)
T2 sequence: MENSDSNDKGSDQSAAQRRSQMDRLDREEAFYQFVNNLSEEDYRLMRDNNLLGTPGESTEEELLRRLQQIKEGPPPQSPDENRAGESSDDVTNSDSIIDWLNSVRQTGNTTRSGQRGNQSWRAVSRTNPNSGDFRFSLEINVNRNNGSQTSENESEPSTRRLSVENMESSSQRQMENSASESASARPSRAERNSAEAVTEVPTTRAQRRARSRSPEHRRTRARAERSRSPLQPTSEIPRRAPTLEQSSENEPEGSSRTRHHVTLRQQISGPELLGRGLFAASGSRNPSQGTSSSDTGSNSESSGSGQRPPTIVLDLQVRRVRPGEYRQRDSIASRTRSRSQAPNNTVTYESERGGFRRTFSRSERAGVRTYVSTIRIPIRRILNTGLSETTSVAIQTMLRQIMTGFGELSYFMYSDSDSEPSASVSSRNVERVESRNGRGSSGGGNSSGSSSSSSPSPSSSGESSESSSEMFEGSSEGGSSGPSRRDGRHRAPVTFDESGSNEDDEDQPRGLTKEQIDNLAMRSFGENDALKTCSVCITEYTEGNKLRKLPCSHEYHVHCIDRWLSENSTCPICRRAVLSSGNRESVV

[3] = molecular target: T3, HA-tagged mouse RNF12 wild type (HA-mRNF12 WT, 1-600) (mouse) (UniProt Q9WTV7)
T3 sequence: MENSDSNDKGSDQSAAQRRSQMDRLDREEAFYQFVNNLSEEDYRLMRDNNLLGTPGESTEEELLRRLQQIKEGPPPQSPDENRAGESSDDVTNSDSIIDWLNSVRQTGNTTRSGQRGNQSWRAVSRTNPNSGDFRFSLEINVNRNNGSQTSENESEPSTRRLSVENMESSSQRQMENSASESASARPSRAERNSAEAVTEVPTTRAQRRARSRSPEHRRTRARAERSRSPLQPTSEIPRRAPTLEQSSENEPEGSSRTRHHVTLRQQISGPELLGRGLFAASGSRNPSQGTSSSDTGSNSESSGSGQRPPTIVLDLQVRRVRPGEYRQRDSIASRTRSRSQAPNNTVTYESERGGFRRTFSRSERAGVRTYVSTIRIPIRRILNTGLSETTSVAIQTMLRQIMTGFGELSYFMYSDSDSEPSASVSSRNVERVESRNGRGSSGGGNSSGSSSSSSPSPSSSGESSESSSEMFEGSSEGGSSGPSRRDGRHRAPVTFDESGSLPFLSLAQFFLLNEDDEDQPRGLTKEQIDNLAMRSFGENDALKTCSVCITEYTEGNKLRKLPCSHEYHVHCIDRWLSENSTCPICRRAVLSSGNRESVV

[4] = molecular target: T4, HA-mRNF12 Δ326-423 (ΔBR) (mouse) (UniProt Q9WTV7)
T4 sequence: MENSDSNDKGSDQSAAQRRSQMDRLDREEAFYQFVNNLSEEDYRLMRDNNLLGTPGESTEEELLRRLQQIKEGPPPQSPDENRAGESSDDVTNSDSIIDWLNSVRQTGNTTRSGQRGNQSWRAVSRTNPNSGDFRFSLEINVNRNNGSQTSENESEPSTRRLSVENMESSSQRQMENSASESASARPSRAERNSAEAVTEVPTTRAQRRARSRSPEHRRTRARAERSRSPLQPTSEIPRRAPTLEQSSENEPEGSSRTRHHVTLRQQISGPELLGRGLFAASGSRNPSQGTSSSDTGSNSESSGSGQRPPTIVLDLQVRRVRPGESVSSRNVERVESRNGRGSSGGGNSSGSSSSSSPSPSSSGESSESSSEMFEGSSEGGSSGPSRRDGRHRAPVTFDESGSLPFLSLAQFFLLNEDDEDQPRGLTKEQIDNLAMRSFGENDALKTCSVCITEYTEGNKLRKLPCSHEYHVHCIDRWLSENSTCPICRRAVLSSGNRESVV

[5] = molecular target: T5, HA-mRNF12 Δ1-206 (ΔN) (mouse) (UniProt Q9WTV7)
T5 sequence: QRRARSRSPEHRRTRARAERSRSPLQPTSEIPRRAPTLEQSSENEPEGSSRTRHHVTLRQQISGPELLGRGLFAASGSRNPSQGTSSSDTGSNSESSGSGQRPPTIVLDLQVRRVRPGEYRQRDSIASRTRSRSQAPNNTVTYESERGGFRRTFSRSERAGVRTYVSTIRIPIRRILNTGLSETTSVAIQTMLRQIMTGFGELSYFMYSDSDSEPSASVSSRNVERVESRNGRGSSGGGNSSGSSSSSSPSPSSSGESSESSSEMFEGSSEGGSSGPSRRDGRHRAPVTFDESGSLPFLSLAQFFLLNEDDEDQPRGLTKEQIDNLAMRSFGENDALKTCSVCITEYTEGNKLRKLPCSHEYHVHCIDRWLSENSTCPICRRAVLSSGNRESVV

B1: FLAG-tagged human USP26 (FLAG-hUSP26) (enzyme, UniProt Q9BXU7 1-913)
chain: MAALFLRGFVQIGNCKTGISKSKEAFIEAVERKKKDRLVLYFKSGKYSTFRLSDNIQNVVLKSYRGNQNHLHLTLQNNNGLFIEGLSSTDAEQLKIFLDRVHQNEVQPPVRPGKGGSVFSSTTQKEINKTSFHKVDEKSSSKSFEIAKGSGTGVLQRMPLLTSKLTLTCGELSENQHKKRKRMLSSSSEMNEEFLKENNSVEYKKSKADCSRCVSYNREKQLKLKELEENKKLECESSCIMNATGNPYLDDIGLLQALTEKMVLVFLLQQGYSDGYTKWDKLKLFFELFPEKICHGLPNLGNTCYMNAVLQSLLSIPSFADDLLNQSFPWGKIPLNALTMCLARLLFFKDTYNIEIKEMLLLNLKKAISAAAEIFHGNAQNDAHEFLAHCLDQLKDNMEKLNTIWKPKSEFGEDNFPKQVFADDPDTSGFSCPVITNFELELLHSIACKACGQVILKTELNNYLSINLPQRIKAHPSSIQSTFDLFFGAEELEYKCAKCEHKTSVGVHSFSRLPRILIVHLKRYSLNEFCALKKNDQEVIISKYLKVSSHCNEGTRPPLPLSEDGEITDFQLLKVIRKMTSGNISVSWPATKESKDILAPHIGSDKESEQKKGQTVFKGASRRQQQKYLGKNSKPNELESVYSGDRAFIEKEPLAHLMTYLEDTSLCQFHKAGGKPASSPGTPLSKVDFQTVPENPKRKKYVKTSKFVAFDRIINPTKDLYEDKNIRIPERFQKVSEQTQQCDGMRICEQAPQQALPQSFPKPGTQGHTKNLLRPTKLNLQKSNRNSLLALGSNKNPRNKDILDKIKSKAKETKRNDDKGDHTYRLISVVSHLGKTLKSGHYICDAYDFEKQIWFTYDDMRVLGIQEAQMQEDRRCTGYIFFYMHNEIFEEMLKREENAQLNSKEVEETLQKE
binding [1]: binds | binding [2]: binds | binding [3]: binds | binding [4]: no binding | binding [5]: binds
